Like-named read-outs stand apart in the source and are kept apart here. Results are given in words; binding and its absence hold for the method and conditions named. For part of these data: In cells and extracts the contact can be indirect. Some entries that bind do so weakly or less than the wild type. For part of these data: Tags and fused reporters may be left off the sequences shown.
T1: GL3 (BiFC fusion) (Morus alba L. cv. Hongguo2)
T1 sequence: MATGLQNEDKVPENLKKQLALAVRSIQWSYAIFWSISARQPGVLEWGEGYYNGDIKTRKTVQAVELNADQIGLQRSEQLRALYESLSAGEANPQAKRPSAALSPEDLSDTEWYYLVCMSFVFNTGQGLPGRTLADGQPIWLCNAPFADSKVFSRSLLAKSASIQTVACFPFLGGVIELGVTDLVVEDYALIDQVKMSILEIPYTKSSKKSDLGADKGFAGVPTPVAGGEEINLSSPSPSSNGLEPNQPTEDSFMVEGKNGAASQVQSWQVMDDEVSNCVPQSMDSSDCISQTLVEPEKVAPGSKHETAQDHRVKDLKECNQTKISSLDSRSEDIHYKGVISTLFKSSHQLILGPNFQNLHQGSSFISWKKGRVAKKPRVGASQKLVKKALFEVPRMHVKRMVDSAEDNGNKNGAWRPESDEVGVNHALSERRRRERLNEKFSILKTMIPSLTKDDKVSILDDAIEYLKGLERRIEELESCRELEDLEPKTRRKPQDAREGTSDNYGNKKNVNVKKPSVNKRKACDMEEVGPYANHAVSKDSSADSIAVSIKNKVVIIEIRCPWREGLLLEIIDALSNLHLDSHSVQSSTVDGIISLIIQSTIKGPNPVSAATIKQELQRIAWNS

By UniProt entry, the sequences of proteins in these tests, tags left out.
UniProt A0A7G3WX94: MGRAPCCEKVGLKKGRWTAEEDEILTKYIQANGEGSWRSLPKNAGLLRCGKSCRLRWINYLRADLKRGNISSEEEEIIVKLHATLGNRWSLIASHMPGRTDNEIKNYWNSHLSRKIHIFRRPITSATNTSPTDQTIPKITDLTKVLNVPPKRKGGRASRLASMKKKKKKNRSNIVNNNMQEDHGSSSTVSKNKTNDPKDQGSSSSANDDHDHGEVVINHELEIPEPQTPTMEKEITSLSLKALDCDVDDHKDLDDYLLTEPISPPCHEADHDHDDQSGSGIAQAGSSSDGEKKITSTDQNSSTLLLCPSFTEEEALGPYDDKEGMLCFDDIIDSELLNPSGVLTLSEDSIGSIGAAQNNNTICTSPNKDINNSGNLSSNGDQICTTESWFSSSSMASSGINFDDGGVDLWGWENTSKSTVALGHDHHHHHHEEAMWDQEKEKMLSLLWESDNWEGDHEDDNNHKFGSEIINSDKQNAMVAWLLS
UniProt A0A7G3WX88: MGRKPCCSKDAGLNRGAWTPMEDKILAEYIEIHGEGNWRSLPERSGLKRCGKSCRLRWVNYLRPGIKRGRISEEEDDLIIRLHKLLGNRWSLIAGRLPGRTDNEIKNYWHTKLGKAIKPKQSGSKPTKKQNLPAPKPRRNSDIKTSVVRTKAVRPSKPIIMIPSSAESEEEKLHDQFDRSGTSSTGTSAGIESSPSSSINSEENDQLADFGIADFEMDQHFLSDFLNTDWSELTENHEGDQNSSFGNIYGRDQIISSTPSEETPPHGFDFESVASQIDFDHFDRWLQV
UniProt A0A7G3WX89: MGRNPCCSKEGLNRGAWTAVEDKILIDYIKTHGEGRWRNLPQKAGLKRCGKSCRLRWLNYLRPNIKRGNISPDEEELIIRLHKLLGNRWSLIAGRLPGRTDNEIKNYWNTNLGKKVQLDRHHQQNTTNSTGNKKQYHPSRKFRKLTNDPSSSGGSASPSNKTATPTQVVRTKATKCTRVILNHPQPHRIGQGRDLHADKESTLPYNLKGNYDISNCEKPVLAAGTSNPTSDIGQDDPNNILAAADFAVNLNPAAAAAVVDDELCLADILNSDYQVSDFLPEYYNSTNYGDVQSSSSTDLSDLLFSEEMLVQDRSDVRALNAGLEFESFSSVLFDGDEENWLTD

T2: TTG1 (BiFC fusion) (Morus alba L. cv. Hongguo2)
T2 sequence: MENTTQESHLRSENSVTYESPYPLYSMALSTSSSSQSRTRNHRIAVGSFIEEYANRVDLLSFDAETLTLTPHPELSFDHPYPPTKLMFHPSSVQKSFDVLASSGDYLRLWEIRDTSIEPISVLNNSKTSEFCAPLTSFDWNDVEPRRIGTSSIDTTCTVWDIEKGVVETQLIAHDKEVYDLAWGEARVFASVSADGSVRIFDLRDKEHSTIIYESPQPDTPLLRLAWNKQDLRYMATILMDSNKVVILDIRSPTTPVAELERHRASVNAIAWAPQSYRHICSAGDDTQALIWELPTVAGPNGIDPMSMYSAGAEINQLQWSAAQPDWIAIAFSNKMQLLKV

T3: CLuc-GL3 (Morus alba L. cv. Hongguo2)
T3 sequence: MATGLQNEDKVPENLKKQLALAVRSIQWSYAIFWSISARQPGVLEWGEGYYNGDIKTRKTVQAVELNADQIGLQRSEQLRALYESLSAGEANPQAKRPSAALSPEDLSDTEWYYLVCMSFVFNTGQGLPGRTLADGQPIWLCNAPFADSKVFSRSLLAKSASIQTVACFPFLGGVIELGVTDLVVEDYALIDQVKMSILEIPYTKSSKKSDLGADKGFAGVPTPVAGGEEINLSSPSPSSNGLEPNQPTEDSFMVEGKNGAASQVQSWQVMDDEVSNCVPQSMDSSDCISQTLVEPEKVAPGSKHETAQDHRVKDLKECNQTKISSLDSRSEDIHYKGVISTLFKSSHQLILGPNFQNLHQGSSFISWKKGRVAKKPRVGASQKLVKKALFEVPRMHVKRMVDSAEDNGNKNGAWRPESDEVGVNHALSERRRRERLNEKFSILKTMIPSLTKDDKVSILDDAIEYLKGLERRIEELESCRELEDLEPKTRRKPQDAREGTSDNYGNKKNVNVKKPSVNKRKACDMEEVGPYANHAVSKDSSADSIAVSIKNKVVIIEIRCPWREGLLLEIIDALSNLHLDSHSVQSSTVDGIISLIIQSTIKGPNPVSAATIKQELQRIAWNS

T4: GL3 (yeast two-hybrid fusion) (Morus alba L. cv. Hongguo2)
T4 sequence: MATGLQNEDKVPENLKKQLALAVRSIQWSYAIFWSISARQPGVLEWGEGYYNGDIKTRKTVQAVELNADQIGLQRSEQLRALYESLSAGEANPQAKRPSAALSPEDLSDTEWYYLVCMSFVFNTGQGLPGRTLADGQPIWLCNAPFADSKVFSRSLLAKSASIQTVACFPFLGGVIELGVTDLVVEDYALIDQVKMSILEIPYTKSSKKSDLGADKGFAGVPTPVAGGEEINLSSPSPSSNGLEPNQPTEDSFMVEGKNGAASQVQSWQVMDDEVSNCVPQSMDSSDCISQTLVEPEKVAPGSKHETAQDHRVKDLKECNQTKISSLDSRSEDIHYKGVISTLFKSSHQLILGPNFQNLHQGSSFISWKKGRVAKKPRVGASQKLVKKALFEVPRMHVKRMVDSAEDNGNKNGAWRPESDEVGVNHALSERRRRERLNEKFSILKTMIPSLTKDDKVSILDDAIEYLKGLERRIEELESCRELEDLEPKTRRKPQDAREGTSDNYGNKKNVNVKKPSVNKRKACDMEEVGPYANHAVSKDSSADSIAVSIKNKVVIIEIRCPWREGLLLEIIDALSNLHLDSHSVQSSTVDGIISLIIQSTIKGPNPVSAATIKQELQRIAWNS

T5: TTG1 (yeast two-hybrid fusion) (Morus alba L. cv. Hongguo2)
T5 sequence: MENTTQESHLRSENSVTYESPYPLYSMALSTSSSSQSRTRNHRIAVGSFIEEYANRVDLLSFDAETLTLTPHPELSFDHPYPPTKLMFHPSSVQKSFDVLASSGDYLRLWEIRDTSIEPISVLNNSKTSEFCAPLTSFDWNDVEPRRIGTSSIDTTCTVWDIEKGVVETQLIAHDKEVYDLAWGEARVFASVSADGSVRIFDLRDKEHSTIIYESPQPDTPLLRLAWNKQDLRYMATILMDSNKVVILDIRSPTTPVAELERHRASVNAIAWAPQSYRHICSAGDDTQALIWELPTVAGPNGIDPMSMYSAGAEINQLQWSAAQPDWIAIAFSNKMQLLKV

T6: TTG1-NLuc (Morus alba L. cv. Hongguo2)
T6 sequence: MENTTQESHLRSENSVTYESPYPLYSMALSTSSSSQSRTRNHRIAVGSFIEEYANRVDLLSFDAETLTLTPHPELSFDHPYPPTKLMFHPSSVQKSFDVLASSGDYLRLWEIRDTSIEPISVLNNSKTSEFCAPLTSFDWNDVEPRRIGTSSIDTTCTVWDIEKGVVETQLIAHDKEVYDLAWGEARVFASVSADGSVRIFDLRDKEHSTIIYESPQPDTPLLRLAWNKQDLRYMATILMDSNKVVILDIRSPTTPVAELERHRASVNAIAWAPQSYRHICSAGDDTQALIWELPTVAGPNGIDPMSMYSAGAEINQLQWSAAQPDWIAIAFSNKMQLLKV


Experiments:
[1] = molecular target: T1, GL3 (BiFC fusion) (Morus alba L. cv. Hongguo2); assay: split reporter; BiFC with pSPYNE and pSPYCE fusions, as described by Lv et al.
[2] = molecular target: T2, TTG1 (BiFC fusion) (Morus alba L. cv. Hongguo2); assay: as above
[3] = molecular target: bHLH3 (BiFC fusion) (Morus alba L. cv. Hongguo2); assay: as above
[4] = molecular target: T3, CLuc-GL3 (Morus alba L. cv. Hongguo2); assay: split reporter; split luciferase complementation in Nicotiana benthamiana leaves (pCambia1300nLUC / pCambia1300cLUC), firefly luciferase activity 3 days after infiltration
[5] = molecular target: CLuc-bHLH3 (Morus alba L. cv. Hongguo2); assay: as above
[6] = molecular target: T4, GL3 (yeast two-hybrid fusion) (Morus alba L. cv. Hongguo2); assay: two-hybrid; yeast two-hybrid with pGADT7 and pGBKT7 fusions; SD-Trp-Leu-His-Ade+(X-a-Gal) medium
[7] = molecular target: T5, TTG1 (yeast two-hybrid fusion) (Morus alba L. cv. Hongguo2); assay: as above
[8] = molecular target: bHLH3 (yeast two-hybrid fusion) (Morus alba L. cv. Hongguo2); assay: as above
[9] = molecular target: T5, TTG1 (yeast two-hybrid fusion) (Morus alba L. cv. Hongguo2); assay: as above; remark: listed apart in the source
[10] = molecular target: T6, TTG1-NLuc (Morus alba L. cv. Hongguo2); assay: split reporter; split luciferase complementation in Nicotiana benthamiana leaves (pCambia1300nLUC / pCambia1300cLUC), firefly luciferase activity 3 days after infiltration

Molecule	binding [1]	binding [2]	binding [3]	binding [4]	binding [5]	other results
MYBF (BiFC fusion) (from UniProt A0A7G3WX94 1-484)	no binding	no binding	no binding			
TT2L2 (yeast two-hybrid fusion) (from UniProt A0A7G3WX88 1-288)						binding [6]: binds; binding [7]: no binding; binding [8]: binds
TT2L3 (BiFC fusion) (protein, UniProt A0A7G3WX90 1-238) MGERRPRISGGSDEGSSRRWTAMEDKTLTEYIRINGERQWNCLPQNAGLKKSGRSCRLRWLNYLKPGIKRGNISQKEEDTIIRLHKNLGNRWSVIAGLLPGRTDNEIKNYWNTKISKKIKEDDCKADSTTSSDPKPSIGHESLEVPNLTTKQQLGLCEVPQTSLNESDETSIPSPEEARMELEDDPVAAQPRDIYGVVHEHFETILSPVRICEDKWQLMHDDVWMDFEIWNTFPDQQY	no binding	no binding	no binding			
GL3 (yeast two-hybrid fusion) (protein, UniProt A0A7G3WX92 1-624) MATGLQNEDKVPENLKKQLALAVRSIQWSYAIFWSISARQPGVLEWGEGYYNGDIKTRKTVQAVELNADQIGLQRSEQLRALYESLSAGEANPQAKRPSAALSPEDLSDTEWYYLVCMSFVFNTGQGLPGRTLADGQPIWLCNAPFADSKVFSRSLLAKSASIQTVACFPFLGGVIELGVTDLVVEDYALIDQVKMSILEIPYTKSSKKSDLGADKGFAGVPTPVAGGEEINLSSPSPSSNGLEPNQPTEDSFMVEGKNGAASQVQSWQVMDDEVSNCVPQSMDSSDCISQTLVEPEKVAPGSKHETAQDHRVKDLKECNQTKISSLDSRSEDIHYKGVISTLFKSSHQLILGPNFQNLHQGSSFISWKKGRVAKKPRVGASQKLVKKALFEVPRMHVKRMVDSAEDNGNKNGAWRPESDEVGVNHALSERRRRERLNEKFSILKTMIPSLTKDDKVSILDDAIEYLKGLERRIEELESCRELEDLEPKTRRKPQDAREGTSDNYGNKKNVNVKKPSVNKRKACDMEEVGPYANHAVSKDSSADSIAVSIKNKVVIIEIRCPWREGLLLEIIDALSNLHLDSHSVQSSTVDGIISLIIQSTIKGPNPVSAATIKQELQRIAWNS						binding [9]: binds
CLuc-GL3 (protein, UniProt A0A7G3WX92 1-624) MATGLQNEDKVPENLKKQLALAVRSIQWSYAIFWSISARQPGVLEWGEGYYNGDIKTRKTVQAVELNADQIGLQRSEQLRALYESLSAGEANPQAKRPSAALSPEDLSDTEWYYLVCMSFVFNTGQGLPGRTLADGQPIWLCNAPFADSKVFSRSLLAKSASIQTVACFPFLGGVIELGVTDLVVEDYALIDQVKMSILEIPYTKSSKKSDLGADKGFAGVPTPVAGGEEINLSSPSPSSNGLEPNQPTEDSFMVEGKNGAASQVQSWQVMDDEVSNCVPQSMDSSDCISQTLVEPEKVAPGSKHETAQDHRVKDLKECNQTKISSLDSRSEDIHYKGVISTLFKSSHQLILGPNFQNLHQGSSFISWKKGRVAKKPRVGASQKLVKKALFEVPRMHVKRMVDSAEDNGNKNGAWRPESDEVGVNHALSERRRRERLNEKFSILKTMIPSLTKDDKVSILDDAIEYLKGLERRIEELESCRELEDLEPKTRRKPQDAREGTSDNYGNKKNVNVKKPSVNKRKACDMEEVGPYANHAVSKDSSADSIAVSIKNKVVIIEIRCPWREGLLLEIIDALSNLHLDSHSVQSSTVDGIISLIIQSTIKGPNPVSAATIKQELQRIAWNS						binding [10]: binds
MYBA (BiFC fusion) (protein, UniProt A0A7G3WX87 1-311) MQTEGCSSTGGVRKGAWTREEDILLKKCIDKYGEGKWQLVPSRAGLNRCRKSCRLRWMNYLKPDVKRGEFTVDEVDLILRLHKLLGNRWALIAGRIPGRTANDVKNYWNTHLRKKVALFPHDKNTKNTNNDIIAKSKVFRPRPRTPKTQPSLTNKNNSASSTTNFAAISINIQPTDDGNNNNNNNINYNNNNNNEPVIPVLEDSKYWWESLLDDITSDEGVANSVSSTGLLDHGQPNNGNIANFLSELEADQPALSISPWPTDVTDSATSTCVNLVEDDYGHQNSWTDFIMDMDVELWGLPSKDQGNAEMQ	binds	binds	binds			

The next lines start with results.

binding [1]	binding [2]	binding [3]	binding [4]	binding [5]	Molecule	other results
			binds	binds	TT2L2-NLuc (from UniProt A0A7G3WX88 1-288)	
			binds	binds	TT2L1-NLuc (from UniProt A0A7G3WX89 1-343)	
	binds				GL3 (BiFC fusion) (protein, UniProt A0A7G3WX92 1-624) MATGLQNEDKVPENLKKQLALAVRSIQWSYAIFWSISARQPGVLEWGEGYYNGDIKTRKTVQAVELNADQIGLQRSEQLRALYESLSAGEANPQAKRPSAALSPEDLSDTEWYYLVCMSFVFNTGQGLPGRTLADGQPIWLCNAPFADSKVFSRSLLAKSASIQTVACFPFLGGVIELGVTDLVVEDYALIDQVKMSILEIPYTKSSKKSDLGADKGFAGVPTPVAGGEEINLSSPSPSSNGLEPNQPTEDSFMVEGKNGAASQVQSWQVMDDEVSNCVPQSMDSSDCISQTLVEPEKVAPGSKHETAQDHRVKDLKECNQTKISSLDSRSEDIHYKGVISTLFKSSHQLILGPNFQNLHQGSSFISWKKGRVAKKPRVGASQKLVKKALFEVPRMHVKRMVDSAEDNGNKNGAWRPESDEVGVNHALSERRRRERLNEKFSILKTMIPSLTKDDKVSILDDAIEYLKGLERRIEELESCRELEDLEPKTRRKPQDAREGTSDNYGNKKNVNVKKPSVNKRKACDMEEVGPYANHAVSKDSSADSIAVSIKNKVVIIEIRCPWREGLLLEIIDALSNLHLDSHSVQSSTVDGIISLIIQSTIKGPNPVSAATIKQELQRIAWNS	
			binds	binds	MYBA-NLuc (protein, UniProt A0A7G3WX87 1-311) MQTEGCSSTGGVRKGAWTREEDILLKKCIDKYGEGKWQLVPSRAGLNRCRKSCRLRWMNYLKPDVKRGEFTVDEVDLILRLHKLLGNRWALIAGRIPGRTANDVKNYWNTHLRKKVALFPHDKNTKNTNNDIIAKSKVFRPRPRTPKTQPSLTNKNNSASSTTNFAAISINIQPTDDGNNNNNNNINYNNNNNNEPVIPVLEDSKYWWESLLDDITSDEGVANSVSSTGLLDHGQPNNGNIANFLSELEADQPALSISPWPTDVTDSATSTCVNLVEDDYGHQNSWTDFIMDMDVELWGLPSKDQGNAEMQ	

— PMC7261776
